Experimental data: PubChem BioAssay AID2675 (National Center for Advancing Translational Sciences (NCATS), 2010)
Several values for one entry are separate records, joined by “and”; a condition that tells them apart may be missing. Equal values may be shown once. About 100 (0.036%) of roughly 280,000 compounds were called active. Inconclusive means that the source gave no clear call. Such entries were picked first, then a sample of the others. The call rests on the fitted dose curve; in most records, active means well fitted inhibition curve with a large enough effect in the signal ratio, with a control signal flat (not every such curve was filed as active); inconclusive means small, poorly fitted or top-dose-only effect, or effect the other way, or a change in a side signal; inactive means no such curve, though single readings can be large or run the other way; the % refers to the signal ratio. A potency beside an inconclusive call is a rough fit, not a confirmed value. A note “side channel” means that the fit belongs to a control or component signal, not to the main read-out.

These compounds were tested against Muscleblind-like protein 1 (Homo sapiens) (UniProt Q9NR56) (assay: qHTS Assay for Inhibitors of MBNL1-poly(CUG) RNA binding). Settings: TR-FRET MBNL1-His/biotin-(CUG)12 binding, 665/545 ratio; activity change, negative = inhibition: at 57.5 µM (top of the series).
UniProt Q9NR56, sequence (Q9NR56 whole entry, looked up): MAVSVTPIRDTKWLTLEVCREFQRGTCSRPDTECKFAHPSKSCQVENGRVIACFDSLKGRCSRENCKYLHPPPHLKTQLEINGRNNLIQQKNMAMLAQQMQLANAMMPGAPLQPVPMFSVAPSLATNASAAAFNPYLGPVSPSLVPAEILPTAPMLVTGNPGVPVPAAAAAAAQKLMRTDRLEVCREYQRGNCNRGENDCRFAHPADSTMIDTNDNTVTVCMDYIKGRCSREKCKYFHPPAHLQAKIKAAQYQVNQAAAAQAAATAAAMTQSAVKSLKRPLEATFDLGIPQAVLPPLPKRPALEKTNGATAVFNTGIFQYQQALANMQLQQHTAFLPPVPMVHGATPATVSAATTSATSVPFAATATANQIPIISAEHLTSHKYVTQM
In short: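 Compound titration spanned 92 nM–58 uM against the MBNL1-His/biotin-(CUG)12 complex. After 60 min at room temperature with 5 nM streptavidin-XL665 and 0.055 ng/ul terbium anti-His, ratiometric 665/545 nm emission (Ex 340 nm) normalized to controls.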
On the % scale 0 is the no-effect control and ±100 the full control effect; potency means the concentration at half of the fitted maximal effect; tags describe the fitted curve by direction and shape or compound fluorescence and quenching.

Row | SMILES | Potency | activity change, negative = inhibition
1 | CCOC(=O)C1CCCN(C2=NC(=O)/C(=C/c3ccc(O)c(OC)c3)S2)C1 (configuration not stated) | inconclusive: 14.1 µM [quencher, side channel, partial curve] | –
2 | O=C(N/N=C/c1ccc2c(c1)OCO2)c1ccc(Cn2cc([N+](=O)[O-])cn2)o1 | inconclusive: 15.8 µM [quencher, single point] | –
3 | COc1ccc2c(c1OC)c(=O)n1c3ccc(OC(C)C(=O)NCCCN4CCOCC4)cc3c3ccnc2c31 (configuration not stated) | inconclusive: 7.94 µM [quencher, side channel, partial curve] | –
4 | CC(=O)N1CCC2(CC1)CC(=O)c1cc(OCC(=O)N3CCOCC3)ccc1O2 | – | inactive: 12.6%
5 | Cc1ccc(NC(CC(=O)c2ccccc2)C(=O)O)cc1Cl (configuration not stated) | – | inactive: 0.853%
6 | COc1cnn(-c2cc(Oc3ccc(C)cc3)ncn2)c(=O)c1Cl | inconclusive: 17.8 µM [quencher, side channel, partial curve] | –
7 | COc1ccccc1C(=O)Nc1nc2cc3c(cc2s1)OCO3 | – | inactive: -8.45%
8 | CCOC(=O)C1=C(C)NC(=S)NC1c1ccc(-c2cccc(Cl)c2C)o1 (configuration not stated) | – | inactive: 4.64%
9 | CC1(C)Cc2c(C#N)c(N3CCN(C(=O)c4ccccc4)CC3)nc(-c3ccco3)c2CS1 | – | inactive: 42.2%
10 | CS(=O)(=O)N1CCN(c2ccccc2NC(=O)Cc2ccccc2)CC1 | – | inactive: -1.66%
11 | COc1ccccc1-c1nnc(NC(=O)CCS(=O)(=O)c2ccccc2)o1 | – | inactive: 6.66%
12 | Cc1ccc(S(=O)(=O)NC2=NCN(CCOC(=O)c3ccc([N+](=O)[O-])cc3)CN2)cc1 | inconclusive: 1.58 µM [quencher, side channel, full curve] | –
13 | O=C(O)CC1(CC(=O)Nc2ccc3ccccc3n2)CCCCC1 | – | inactive: -2.16%
14 | CC(C)c1ccc(/C=C2\NC(=O)NC2=O)cc1 | inconclusive: 10 µM [quencher, side channel, partial curve] | –
15 | O=C(O)CCn1c(SCc2cc(=O)n3ccccc3n2)nc2ccsc2c1=O | inconclusive: 25.1 µM [quencher, partial curve] | –
16 | CCOCCCNC(=O)c1cc2c(s1)-c1ccccc1SC2 | – | inactive: 24.4%
17 | CNC(=O)c1ccsc1NC(=O)CCS(=O)(=O)c1ccccc1 | inconclusive: 39.8 µM [fluorescent, side channel, single point] | –
18 | CCOc1cc(/C=C\c2nc(O)c([N+](=O)[O-])c(=O)[nH]2)ccc1OC(C)C | inconclusive: 35.5 µM [quencher, side channel, single point] | –
19 | CS(=O)(=O)Nc1ccc([N+](=O)[O-])cc1Oc1ccccc1 | inconclusive: 14.1 µM [quencher, side channel, partial curve] and inconclusive: 31.6 µM [quencher, side channel, partial curve] | –
20 | O=C(c1ccc2c(c1)OCO2)N1CCN(c2ccccn2)CC1 | – | inactive: -5.11%
21 | CN1C(N)=NC(=O)/C1=C/c1ccc(F)cc1 | inconclusive: 14.1 µM [quencher, side channel, partial curve] | –

Row | SMILES | Potency | activity change, negative = inhibition
22 | CCN(Cc1cc2cc(C)ccc2[nH]c1=O)C(=O)c1cccc([N+](=O)[O-])c1 | – | inactive: 4.58%
23 | c1ccc(-c2ccccc2OCCn2cncn2)cc1 | inconclusive: 7.94 µM [fluorescent, side channel, full curve] | –
24 | CCC(=O)Nc1c2c(nn1-c1ccc([N+](=O)[O-])cc1)CS(=O)(=O)C2 | inconclusive: 3.55 µM [quencher, full curve] | –
25 | Cc1ccc(C(=O)NCC(=O)NCC(=O)OCC(=O)c2ccc([N+](=O)[O-])cc2)cc1 | inconclusive: 15.8 µM [quencher, side channel, partial curve] | –
26 | O=C(N/N=C/c1ccccc1[N+](=O)[O-])C(=O)N1CCCC1 | inconclusive: 14.1 µM [quencher, side channel, partial curve] | –
27 | NC(=O)c1cc[n+](CC2=C(C(=O)O)N3C(=O)[C@@H](NC(=O)C(c4ccccc4)S(=O)(=O)[O-])[C@H]3SC2)cc1 (some centres not stated) | – | inactive: 3.97%
28 | COc1ncnc2c1sc1nc(-c3ccccc3)c3c(c12)CCCC3 | inconclusive: 0.282 µM [fluorescent, side channel, partial curve] | –
29 | O=C(O)CCc1ccc(-c2ccc(Cl)cc2)o1 | – | inactive: -1.75%
30 | Cc1cc(C)n(-c2cc(N3CCN(C(=O)c4cccc(Br)c4)CC3)ccc2[N+](=O)[O-])n1 | inconclusive: 28.2 µM [quencher, side channel, partial curve] | –
31 | CCOC(=O)CSC1=C(C#N)C(=O)NC(c2ccc(OC)cc2)S1 (configuration not stated) | – | inactive: 2.85%
32 | Clc1ccccc1-c1nc2nc3ccccc3nc2n1-c1ccc2c(c1)OCO2 | inconclusive: 35.5 µM [quencher, side channel, single point] | –
33 | COc1ccc2c(c1)c(=O)cc(-c1ccccc1)n2C | inconclusive: 5.01 µM [quencher, side channel, partial curve] | –
34 | CCn1c(SCC(=O)c2ccc(Cl)s2)nnc1-c1cccs1 | inconclusive: 15.8 µM [quencher, side channel, single point] | –
35 | COCCCN1C(=O)c2ccc(C(=O)Nc3ccc(C)cc3C)cc2C1=O | inconclusive: 11.2 µM [quencher, side channel, partial curve] | –
36 | CCN(C(=O)CSc1nnc2c3ccccc3n(CC)c2n1)C1CCS(=O)(=O)C1 (configuration not stated) | inconclusive: 12.6 µM [quencher, side channel, single point] | –
37 | CC(C)NC(=O)COC(=O)CNC(=O)c1cc(Cl)cc([N+](=O)[O-])c1 | inconclusive: 15.8 µM [quencher, side channel, partial curve] | –
38 | C=CCOc1ccc(Oc2cc(C)nc(SC)n2)nn1 | inconclusive: 0.794 µM [quencher, side channel, single point] | –
39 | CCCOc1ccc(C2=CSC3=NCCN23)cc1Cl | – | inactive: -1.02%
40 | CCCCCCNC(=O)N[C@H](C(=O)NCCC[C@H]1CN2C(=NC[C@H]2C)N1CCC(c1ccccc1)c1ccccc1)C(C)O (some centres not stated) | – | inactive: -5.84%
41 | C/C(=N/NC(=O)c1cc(C(C)C)[nH]n1)c1cccs1 | inconclusive: 17.8 µM [quencher, side channel, single point] | –
42 | O=C(CCl)Nc1cn(-c2ccccc2)nc1-c1ccc(F)cc1 | – | inactive: -6.9%

Row | SMILES | Potency | activity change, negative = inhibition
43 | Cc1cc([N+](=O)[O-])cc2ncccc12 | inconclusive: 17.8 µM [quencher, side channel, partial curve] | –
44 | N#Cc1c(-c2ccco2)cc(-c2ccccc2)[nH]c1=O | inconclusive: 25.1 µM [quencher, side channel, partial curve] | –
45 | C/C(=N\NS(=O)(=O)c1ccc(C)cc1)c1cc2ccccc2oc1=O | inconclusive: 39.8 µM [quencher, side channel, single point] | –
46 | NC(=S)N=Nc1c(O)[nH]c2ccccc12 | inconclusive: 12.6 µM [quencher, side channel, partial curve] | –
47 | CCOC(=O)c1ccc(NC(=O)NCc2ccncc2)cc1 | inconclusive: 63.1 µM [inhibitor, partial curve] | –
48 | CCOc1ccc(N2C(=O)CC(n3nc(C)cc3C)C2=O)cc1 (configuration not stated) | inconclusive: 5.62 µM [quencher, side channel, single point] | –
49 | CCn1cc(/C=N\NC(=O)Cc2ccc([N+](=O)[O-])cc2)c(C)n1 | inconclusive: 12.6 µM [quencher, side channel, partial curve] | –
50 | Cc1ccccc1CSc1nnc2ccc(-c3ccncc3)nn12 | inconclusive: 15.8 µM [quencher, side channel, partial curve] | –
51 | O=C(CN(CC1CCCO1)C(=O)c1nsc(Cl)c1Cl)NC1CCCC1 (configuration not stated) | – | inactive: 4.98%
52 | Cc1nc(NC(C)c2ccccc2)c2oc3ccccc3c2n1 (configuration not stated) | – | inactive: 6.4%
53 | Cc1ccc(NC(=O)C2CCCO2)cc1[N+](=O)[O-] (configuration not stated) | inconclusive: 8.91 µM [quencher, side channel, single point] | –
54 | c1ccc2c(c1)[nH]c1c(N3CCN(C4CCCCC4)CC3)ncnc12 | inconclusive: 25.1 µM [quencher, side channel, partial curve] | –
55 | O=C(CNc1ccccc1)N/N=C/c1ccc([N+](=O)[O-])cc1 | inconclusive: 7.94 µM [quencher, side channel, partial curve] | –
56 | O=[N+]([O-])c1cccc(-n2nnnc2CNCc2ccccc2)c1 | inconclusive: 17.8 µM [quencher, side channel, partial curve] | –
57 | c1ccc(-c2nnc(N3CCCC3)nc2-c2ccccc2)cc1 | inconclusive: 15.8 µM [quencher, side channel, single point] | –
58 | Cn1c(-c2ccc(F)cc2)cnc1NCc1cccc([N+](=O)[O-])c1 | inconclusive: 31.6 µM [quencher, side channel, single point] | –
59 | Cc1ccc(N2CC(C(=O)OCC(=O)c3ccc([N+](=O)[O-])cc3)CC2=O)cc1 (configuration not stated) | inconclusive: 11.2 µM [quencher, side channel, partial curve] | –
60 | CCC1CCC(N2CCN(c3ccc([N+](=O)[O-])cc3)CC2)CC1 (configuration not stated) | inconclusive: 15.8 µM [quencher, partial curve] | –
61 | COc1ccc(/C=N/n2c(C)nnc2C)c(OC)c1 | inconclusive: 39.8 µM [quencher, side channel, single point] | –
62 | Cc1cc(C)nc(N/N=C/c2ccc(N3CCOCC3)cc2)n1 | inconclusive: 20 µM [quencher, side channel, partial curve] | –
